Some of the results follow.

This is an account of results in the antibiotic and cytotoxicity screens of Wong et al. (2023).

The test system of one assay is HSkMC. In words: cytotoxicity call (relative viability < 0.9). Conditions: 10 µM.
A further assay has as its system HepG2. Description: cytotoxicity call (relative viability < 0.9). Conditions: 10 µM.
The next assay concerns S. aureus RN4220. Description: growth inhibition call (relative growth <= 0.2). Conditions: 50 µM.

Turning to `C[C@H](CO)N1C[C@H](C)[C@H](CN(C)S(=O)(=O)c2ccc(-n3cccn3)cc2)OCc2cnnn2CCCC1=O`, the cytotoxicity call in the assay with HSkMC and in the assay with HepG2 was “inactive” each time. In the assay with S. aureus RN4220, the growth inhibition call is “inactive”.

Regarding `CC=Cc1ccc2n(c1=O)C[C@@H]1[C@@H](CO)[C@H](C(=O)NCCc3cn(C)cn3)N(C(=O)C3CC3)[C@H]21`, the cytotoxicity call in the assay with HSkMC and in the assay with HepG2 was “inactive” throughout. For the same compound, the growth inhibition call in the assay on S. aureus RN4220 is “inactive”.

`C[C@H](CO)N1C[C@H](C)[C@H](CN(C)S(C)(=O)=O)Oc2ccc(NC(=O)Nc3ccc(F)cc3)cc2C1=O`: the cytotoxicity call in the assay on HSkMC and in the assay with HepG2 was “inactive” each time. The growth inhibition call in the assay on S. aureus RN4220 was “inactive”.

Regarding `COc1ccc(-c2cc(=O)c3c(O)c(OC)c(OC)c(OC)c3o2)cc1OC`, in the assay with HSkMC, the cytotoxicity call was “inactive”. The cytotoxicity call with HepG2 is “active”. The growth inhibition call in the assay on S. aureus RN4220 was “inactive”.

Turning to `C[C@H]1CN([C@@H](C)CO)C(=O)CCCn2cc(nn2)CO[C@H]1CN(C)S(=O)(=O)c1ccc(Oc2ccccc2)cc1`, the cytotoxicity call in the assay with HSkMC and in the assay on HepG2 was “inactive” each time. Moreover, in the assay with S. aureus RN4220, the growth inhibition call is “inactive”.

For `CN1C(=O)c2cc(NC(=O)c3cccs3)ccc2OC[C@H]2O[C@@H](CC(=O)NCC(F)(F)F)CC[C@H]21`, the cytotoxicity call with HSkMC and with HepG2 was “inactive” in each case. Besides, the growth inhibition call in the assay on S. aureus RN4220 was “inactive”.

Regarding `C[C@H](CO)N1C[C@H](C)[C@H](CN(C)Cc2ccc(Oc3ccccc3)cc2)OCc2ccccc2-c2ccccc2C1=O`, the cytotoxicity call in the assay on HSkMC and in the assay with HepG2 was “inactive” in each case. In addition, the growth inhibition call in the assay with S. aureus RN4220 is “inactive”.

For `C[C@@H]1CN([C@@H](C)CO)C(=O)c2cc(NC(=O)NC3CCCCC3)ccc2O[C@@H](C)CCCCO[C@@H]1CN(C)Cc1ccc2c(c1)OCO2`, the cytotoxicity call with HSkMC and with HepG2 was “inactive” each time. In the assay on S. aureus RN4220, the growth inhibition call is “inactive”.

On to `Cc1cc(C(=O)Nc2cccc3c2O[C@H](CN(C)Cc2ccncc2)[C@@H](C)CN([C@@H](C)CO)C3=O)n(C)n1`, for which the cytotoxicity call with HSkMC and with HepG2 was “inactive” throughout. Further, the growth inhibition call in the assay with S. aureus RN4220 was “inactive”.

For the compound `Fc1cc2ccncc2cc1Cl`, the cytotoxicity call in the assay on HSkMC and in the assay on HepG2 was “inactive” each time. Further, the growth inhibition call in the assay with S. aureus RN4220 is “inactive”.

Turning to `C[C@H](CO)N1C[C@H](C)[C@H](CN(C)C(=O)Nc2ccc3c(c2)OCO3)Oc2ccc(NS(C)(=O)=O)cc2C1=O`, the cytotoxicity call with HSkMC and in the assay with HepG2 was “inactive” each time. Moreover, the growth inhibition call in the assay on S. aureus RN4220 is “inactive”.

In the case of `Cc1noc(C)c1S(=O)(=O)Nc1cccc2c1O[C@H](CN(C)Cc1ccncc1)[C@H](C)CN([C@H](C)CO)C2=O`, the cytotoxicity call with HSkMC and in the assay on HepG2 was “inactive” in each case. The growth inhibition call with S. aureus RN4220 is “inactive”.

Regarding `C[C@H](CO)N1C[C@H](C)[C@@H](CN(C)Cc2ccc(Oc3ccccc3)cc2)Oc2c(NC(=O)Nc3cccc4ccccc34)cccc2C1=O`, the cytotoxicity call with HSkMC and with HepG2 was “active” throughout. Also, the growth inhibition call in the assay on S. aureus RN4220 was “inactive”.

Take `C[C@@H]1CN([C@@H](C)CO)C(=O)Cc2cc(NC(=O)CCN3CCOCC3)ccc2O[C@@H]1CN(C)C(=O)NC1CCCCC1`: the cytotoxicity call with HSkMC and in the assay with HepG2 was “inactive” each time. Further, the growth inhibition call in the assay with S. aureus RN4220 was “inactive”.

As for `C[C@H]1CN([C@@H](C)CO)S(=O)(=O)c2ccc(C#CC(C)(C)O)cc2O[C@H]1CN(C)C(=O)C1CCCCC1`, the cytotoxicity call in the assay with HSkMC and with HepG2 was “inactive” in each case. The growth inhibition call in the assay with S. aureus RN4220 was “inactive”.

As to `C[C@H]1CN([C@@H](C)CO)C(=O)c2c(c3ccccc3n2C)-c2ccccc2CO[C@@H]1CN(C)C(=O)Nc1cccc(C(F)(F)F)c1`, the cytotoxicity call with HSkMC and in the assay with HepG2 was “inactive” throughout. Further, in the assay with S. aureus RN4220, the growth inhibition call is “inactive”.

With `C=CCN1C[C@H](C(N)=O)CC1=O`, the cytotoxicity call in the assay on HSkMC and in the assay on HepG2 was “inactive” throughout. The growth inhibition call in the assay on S. aureus RN4220 is “inactive”.

`Cc1ccc(S(=O)(=O)N(C)C[C@H]2OCCCC[C@@H](C)Oc3ccc(NC(=O)Nc4ccc5c(c4)OCO5)cc3C(=O)N([C@@H](C)CO)C[C@@H]2C)cc1`: the cytotoxicity call in the assay on HSkMC and with HepG2 was “inactive” throughout. For the same compound, in the assay on S. aureus RN4220, the growth inhibition call is “inactive”.

Turning to `Cc1noc(C)c1S(=O)(=O)N(C)C[C@H]1Oc2ccc(NC(=O)NC3CCCCC3)cc2CC(=O)N([C@@H](C)CO)C[C@@H]1C`, the cytotoxicity call in the assay on HSkMC and in the assay on HepG2 was “inactive” in each case. Also, in the assay on S. aureus RN4220, the growth inhibition call was “inactive”.

With `CN(C)CC(=O)N[C@H]1CC[C@H](CCNC(=O)C2CC2)O[C@@H]1CO`, the cytotoxicity call with HSkMC and with HepG2 was “inactive” each time. The growth inhibition call in the assay on S. aureus RN4220 is “inactive”.

Take `C[C@H](CO)N1C[C@H](C)[C@@H](CN(C)C(=O)NC2CCCCC2)OCCCC[C@H](C)Oc2ccc(NS(=O)(=O)c3ccc(Cl)cc3)cc2C1=O`: the cytotoxicity call in the assay with HSkMC and with HepG2 was “inactive” throughout. Besides, the growth inhibition call in the assay with S. aureus RN4220 was “inactive”.

Turning to `CCOC(=O)Cc1n[nH]c(=O)[nH]c1=O`, the cytotoxicity call with HSkMC and in the assay with HepG2 was “inactive” each time. In addition, the growth inhibition call in the assay on S. aureus RN4220 is “inactive”.

Turning to `CN(C)CCCNC(=O)C[C@@H]1C=C[C@H](NC(=O)Cc2cccnc2)[C@@H](CO)O1`, the cytotoxicity call with HSkMC and with HepG2 was “inactive” in each case. The growth inhibition call with S. aureus RN4220 is “inactive”.

`CCOC(=O)[C@H]1CCCN([C@H]2CS(=O)(=O)C[C@@H]2S(=O)(=O)c2ccccc2)C1`: the cytotoxicity call in the assay with HSkMC and in the assay with HepG2 was “inactive” in each case. Besides, the growth inhibition call with S. aureus RN4220 is “inactive”.

With `C[C@@H]1CCCCO[C@H](CN(C)Cc2ccc(C(=O)Nc3ccccc3N)cc2)[C@H](C)CN([C@@H](C)CO)C(=O)c2cc(N(C)C)ccc2O1`, the cytotoxicity call in the assay with HSkMC and with HepG2 was “inactive” in each case. Moreover, in the assay with S. aureus RN4220, the growth inhibition call is “inactive”.

As to `Cc1noc(C)c1S(=O)(=O)Nc1ccc2c(c1)CC(=O)N([C@H](C)CO)C[C@H](C)[C@H](CN(C)C(=O)Nc1ccc3c(c1)OCO3)O2`, the cytotoxicity call with HSkMC and with HepG2 was “inactive” in each case. Further, the growth inhibition call in the assay on S. aureus RN4220 is “inactive”.

Take `C[C@H](CO)N1C[C@H](C)[C@H](CN(C)Cc2ccc3c(c2)OCO3)OCc2ccccc2-c2c(n(C)c3ccccc23)C1=O`: the cytotoxicity call with HSkMC and in the assay with HepG2 was “inactive” in each case. In addition, the growth inhibition call with S. aureus RN4220 is “inactive”.

`C[C@H]1CN([C@@H](C)CO)C(=O)c2cc(NC(=O)c3ccncc3)ccc2O[C@H]1CN(C)S(=O)(=O)c1cccs1`: the cytotoxicity call in the assay with HSkMC and with HepG2 was “inactive” throughout. Also, the growth inhibition call in the assay with S. aureus RN4220 is “inactive”.

Regarding `C[C@@H]1[C@@H]([Si](C)(C)F)[C@H](CCn2cc([C@H](O)c3ccccc3)nn2)O[C@@]12C(=O)N(c1ccccc1)c1ccccc12`, in the assay on HSkMC, the cytotoxicity call was “inactive”. In the assay with HepG2, the cytotoxicity call was “active”. Besides, the growth inhibition call with S. aureus RN4220 is “inactive”.

Turning to `C[C@H]1CCCCO[C@H](CN(C)Cc2ccc3c(c2)OCO3)[C@@H](C)CN([C@@H](C)CO)C(=O)c2cc(NS(=O)(=O)c3ccccc3)ccc2O1`, the cytotoxicity call in the assay on HSkMC and in the assay on HepG2 was “inactive” each time. In addition, the growth inhibition call in the assay on S. aureus RN4220 was “inactive”.

Turning to `CCCC(=O)Nc1ccc2c(c1)OC[C@@H](C)N(S(=O)(=O)c1cn(C)cn1)C[C@H](C)[C@H](OC)CN(C)C2=O`, the cytotoxicity call in the assay with HSkMC and in the assay on HepG2 was “inactive” in each case. In the assay with S. aureus RN4220, the growth inhibition call is “inactive”.

`COCC(=O)N[C@@H]1C=C[C@H](CC(=O)N2CCCCC2)O[C@H]1CO`: the cytotoxicity call in the assay on HSkMC and in the assay with HepG2 was “inactive” throughout. Also, in the assay on S. aureus RN4220, the growth inhibition call was “inactive”.

Consider `Cc1noc(C)c1NC(=O)N(C)C[C@H]1OCCCC[C@@H](C)Oc2ccc(NC(=O)Nc3ccc4c(c3)OCO4)cc2C(=O)N([C@@H](C)CO)C[C@H]1C`, for which the cytotoxicity call in the assay with HSkMC and in the assay with HepG2 was “inactive” in each case. For the same compound, the growth inhibition call in the assay with S. aureus RN4220 is “inactive”.

In the case of `C[C@@H]1CCCCO[C@H](CN(C)S(=O)(=O)c2cccs2)[C@@H](C)CN([C@H](C)CO)C(=O)c2cc(NS(=O)(=O)c3ccc(Cl)cc3)ccc2O1`, the cytotoxicity call with HSkMC and with HepG2 was “inactive” each time. In the assay on S. aureus RN4220, the growth inhibition call was “inactive”.

Consider `C[C@@H]1CCCCO[C@@H](CN(C)C(=O)NC2CCCCC2)[C@@H](C)CN([C@H](C)CO)C(=O)c2cc(NS(=O)(=O)c3ccccc3)ccc2O1`, for which the cytotoxicity call with HSkMC and in the assay with HepG2 was “inactive” in each case. In addition, in the assay with S. aureus RN4220, the growth inhibition call is “inactive”.

As to `COC(=O)c1c(-c2c(Cl)cccc2Cl)noc1-c1cnn(-c2cccc(Cl)c2)c1C(F)(F)F`, the cytotoxicity call in the assay with HSkMC and in the assay on HepG2 was “inactive” each time. For the same compound, the growth inhibition call in the assay with S. aureus RN4220 is “inactive”.

As to `C[C@@H]1CN([C@H](C)CO)C(=O)c2cc(NC(=O)CCN3CCOCC3)ccc2O[C@H]1CN(C)C(=O)Nc1ccc(F)cc1`, the cytotoxicity call with HSkMC and with HepG2 was “inactive” in each case. The growth inhibition call with S. aureus RN4220 was “inactive”.

Turning to `COCCNC(=O)C[C@@H]1CC[C@H]2[C@@H](COC[C@@H](O)CN2C(=O)Nc2ccc3c(c2)OCO3)O1`, the cytotoxicity call in the assay on HSkMC and in the assay on HepG2 was “inactive” throughout. In addition, the growth inhibition call in the assay with S. aureus RN4220 was “inactive”.

With `COc1ccc(CN(C)C[C@@H]2OCCCC[C@@H](C)Oc3ccc(NC(=O)CCC(F)(F)F)cc3C(=O)N([C@@H](C)CO)C[C@H]2C)cc1`, the cytotoxicity call in the assay with HSkMC and in the assay with HepG2 was “inactive” each time. Besides, in the assay with S. aureus RN4220, the growth inhibition call was “inactive”.

As for `C[C@@H]1CN([C@@H](C)CO)C(=O)c2cc(C#CCc3ccccc3)cnc2O[C@@H]1CN(C)C(=O)Cc1cccnc1`, the cytotoxicity call with HSkMC and with HepG2 was “inactive” in each case. In the assay on S. aureus RN4220, the growth inhibition call is “inactive”.

Turning to `C[C@H]1CN([C@@H](C)CO)C(=O)c2c(c3ccccc3n2C)-c2ccccc2CO[C@@H]1CN(C)Cc1ccc(Oc2ccccc2)cc1`, the cytotoxicity call in the assay on HSkMC and in the assay with HepG2 was “inactive” in each case. For the same compound, the growth inhibition call in the assay with S. aureus RN4220 was “inactive”.

For `C[C@H](CO)N1C[C@H](C)[C@@H](CN(C)S(=O)(=O)c2ccccc2F)Oc2ncc(C#Cc3cccnc3)cc2C1=O`, the cytotoxicity call with HSkMC and with HepG2 was “inactive” each time. Also, the growth inhibition call in the assay on S. aureus RN4220 was “inactive”.

In the case of `Cc1ccc(S(=O)(=O)Nc2ccc3c(c2)CC(=O)N([C@H](C)CO)C[C@@H](C)[C@@H](CN(C)S(C)(=O)=O)O3)cc1`, the cytotoxicity call in the assay on HSkMC (human skeletal muscle cells) and in the assay on HepG2 was “inactive” in each case. The growth inhibition call in the assay on S. aureus RN4220 was “inactive”.

Consider `COc1cccc(OC)c1C(=O)NCCCO`, for which the cytotoxicity call with HSkMC and in the assay with HepG2 was “inactive” each time. The growth inhibition call in the assay with S. aureus RN4220 is “inactive”.
